# “And” between values parts separate entries of the source, which are not always exact repeats. Equal values may be shown once. The whole screen tested about 290,000 compounds, of which about 2,100 (0.72%) were called active. Inconclusive means that the source gave no clear call. Such entries were picked first, then a sample of the others. Calls follow the shape of the dose curve; as a rule, active = well fitted inhibition curve with a large enough effect; inconclusive = small, poorly fitted or top-dose-only effect, or effect the other way; inactive = flat fitted curve, though single readings scatter. Potencies beside an inconclusive call are fits to weak or partial responses and may not hold up.
# Target: Fructose-bisphosphate aldolase (Giardia intestinalis (strain ATCC 50803 / WB clone C6)) (UniProt A8B2U2)
# Experiment: qHTS Assay for Inhibitors of Fructose-1,6-bisphosphate Aldolase from Giardia Lamblia; also: nearly all actives have a fitted effect of over 55% in size
# Details: purified Giardia FBPA; activity, negative = inhibition: at 59.6 µM (top of the series) unless noted
# Outline: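 Giardia FBPA (40 nM reagent) was preincubated 10 min at RT with compound (up to 57.5 uM final), then substrate plus GAPDH/TPI/NAD/arsenate coupling system with diaphorase/resazurin was added; resorufin fluorescence (525/598 nm) was read after 20 min.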
# % is scaled to controls: 0 for no effect and ±100 for the full control effect; potency is read from the fitted curve at half-maximal effect; tags tell the direction and shape of the fitted curve.
# Sequence of UniProt A8B2U2 (A8B2U2 whole entry, looked up): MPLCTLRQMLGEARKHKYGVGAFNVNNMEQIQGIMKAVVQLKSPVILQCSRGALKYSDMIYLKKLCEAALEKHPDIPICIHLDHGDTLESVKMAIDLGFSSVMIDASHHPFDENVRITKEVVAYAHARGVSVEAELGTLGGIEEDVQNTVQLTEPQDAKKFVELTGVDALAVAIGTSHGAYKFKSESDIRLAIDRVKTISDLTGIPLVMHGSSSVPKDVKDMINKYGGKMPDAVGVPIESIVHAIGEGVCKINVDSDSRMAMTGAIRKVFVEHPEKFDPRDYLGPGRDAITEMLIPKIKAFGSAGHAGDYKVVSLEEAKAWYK
Compound,"activity, negative = inhibition",Potency
Cn1nc(C(F)(F)F)c(C#N)c1N1CCN(c2ccccc2)CC1,inactive: 0.273%,–
COCCN(CCOC)Cc1c(O)ccc2c1O/C(=C\c1ccco1)C2=O,–,"inconclusive: 12.6 µM [inhibitor, partial curve]"
COc1ccc(-c2csc(N(CCCN(C)C)C(=O)c3ccccc3C)n2)cc1,–,"inconclusive: 11.2 µM [inhibitor, partial curve]"
Oc1ccc(Br)cc1/C=N/Nc1ccccn1,inconclusive: 32.2% [activator],–
CCC(C)c1ccc(C(C)NC(=S)NCc2ccc(F)cc2)cc1 (stereo unspecified),inactive: 23.7%,–
Cc1cc(OCC(=O)NC(C)c2ccccc2)ccc1[N+](=O)[O-] (stereo unspecified),inactive: 3.82%,–
CNCCCOc1ccc2c(c1)CCC2,–,"inconclusive: 19.9 µM [inhibitor, partial curve]"
O=C(O)/C=C/C(=O)Nc1ccc(SC(F)(F)C(F)(F)C(F)(F)F)cc1,–,"inconclusive: 17.7 µM [activator, single point]"
Cc1cccnc1NC(=S)NC(=O)c1oc2ccccc2c1C,–,"inconclusive: 7.94 µM [inhibitor, partial curve]"
CN(C)c1ccc(NC(=O)CSCc2nc3c(nnn3Cc3ccc(F)cc3)c(=O)[nH]2)cc1,–,"inconclusive: 31.5 µM [inhibitor, single point]"
O=C(CSc1nnc(-c2ccco2)c(-c2ccco2)n1)Nc1ccccc1,–,"inconclusive: 2.81 µM [inhibitor, partial curve]"
O=C(c1cc(C(F)(F)F)cc(C(F)(F)F)c1)N1CCC[C@@]2(CCN(c3ncccn3)C2)C1,inactive: 0.59%,–
CC(C)N(C1=CC(=O)OC12CCCCC2)C(C)C,inactive: 2.25%,–
Cc1cc(C)nc(NS(=O)(=O)c2ccc(N)cc2)n1,–,inactive
COc1ccc(CN(C)CCc2ccccn2)c(OC)c1OC,–,"inconclusive: 35.4 µM [inhibitor, single point]"
C#CCNC(=O)C1=C[C@H](c2ccccc2)C[C@H](OCCCCO)O1,–,"inconclusive: 14.1 µM [inhibitor, partial curve]"
O=C(Nc1ccccc1)Nc1n[nH]c2nnc(-c3ccccc3)c(-c3ccccc3)c12,–,"inconclusive: 44.7 µM [activator, partial curve, poor fit]"
Cc1csc2nc(CSc3nc4ccccc4o3)cn12,–,"inconclusive: 9.98 µM [inhibitor, partial curve]"
CN(C)c1cccc2c1c(NC(=O)Nc1ccccc1)nn2C,–,"inconclusive: 15.8 µM [inhibitor, single point]"
O=C(CF)NC(Nc1cccc2cccnc12)C(Cl)(Cl)Cl (stereo unspecified),–,"inconclusive: 17.7 µM [inhibitor, single point]"
CCCCC(=O)NC(c1ccccc1Cl)c1ccc2cccnc2c1O (stereo unspecified),–,"inconclusive: 28.2 µM [activator, partial curve]"
O=c1c2ccccc2nnn1CSc1ccc2c(c1)OCCO2,inactive: -0.88%,–
CCn1c(/N=C/c2ccc(OC)cc2O)nc2ccccc21,–,"inconclusive: 25.1 µM [inhibitor, single point]"
CC(C)(C)OC(=O)N1CC=C2C(C#N)=C(N)C(C#N)(C#N)C(c3cccs3)C2C1 (stereo unspecified),–,"inconclusive: 8.89 µM [inhibitor, partial curve]"

Compound,"activity, negative = inhibition",Potency
CC(C)OC(=O)CN1C(=O)S/C(=C/c2ccc(N3CCCCC3)o2)C1=O,–,"inconclusive: 7.92 µM [inhibitor, partial curve]"
O=C(NCCCn1ccnc1)c1cc2c(ccc3ccccc32)o1,inactive: 0.124%,–
CCCCC1=CC2=CC(=O)C(C)(OC(=O)CC)C(=O)C2=CN1CCCOC(C)C (stereo unspecified),–,"inconclusive: 316 nM [inhibitor, full curve] and inconclusive: 500 nM [inhibitor, full curve]"
Clc1ccccc1/C=N/N1CCN(Cc2ccccc2)CC1,–,"inconclusive: 35.5 µM [inhibitor, single point]"
COc1ccccc1CN1CCC2(CC1)CCN(C(=O)c1ccncc1)CC2,–,"inconclusive: 19.9 µM [inhibitor, single point]"
CCOc1ccccc1C1C2CCCCC2(O)CCN1C(=O)c1cccs1 (stereo unspecified),inactive: 12%,–
CCOC(=O)C1=C(N)Oc2c(c(=O)[nH]c3ccccc23)C1c1ccccc1 (stereo unspecified),–,"inconclusive: 44.6 µM [inhibitor, single point]"
CCN(C(=O)c1cc(S(=O)(=O)N2CCOCC2)cn1C)c1cccc(C)c1,–,active: 12.6 µM
COc1ccc(CS(=O)(=O)c2ncn[nH]2)cc1,–,"inconclusive: 25.1 µM [inhibitor, single point]"
COc1ccccc1N1CC(O)=C(c2nc3ccccc3c(=O)[nH]2)C1=N,inactive: -21.8%,–
O=C(O)c1cc(C(=O)O)c(-c2ccccc2)c(C(=O)O)c1,inactive: 16.3%,–
CCc1nnc(N/N=C/c2ccccc2F)n1N,–,active: 19.9 µM
Cc1ccccc1C(=O)c1cccn1CC(=O)NCCCN1CCc2ccccc2C1,–,active: 15.8 µM
COC(=O)CCCC1=CC2=C(c3ccccc3)C(=O)C(C)(OC(=O)C3CCCC3)C(=O)C2=CN1Cc1ccc2c(c1)OCO2 (stereo unspecified),–,"inconclusive: 3.15 µM [inhibitor, full curve]"
CCOC(=O)N1CCN(S(=O)(=O)c2ccc(C(=O)N(CCN(CC)CC)c3nc4c(C)cccc4s3)cc2)CC1,–,"inconclusive: 35.5 µM [inhibitor, single point]"
O=C(Nc1nnc(-c2ccc3c(c2)CCCC3)o1)c1ccccc1,inactive: 23.9%,–
O=C(C1CCCN(S(=O)(=O)c2ccc(Cl)cc2)C1)N(Cc1cccs1)C1CC1 (stereo unspecified),inactive: 1.04%,–
CO/N=C(\C(=O)N[C@@H]1C(=O)N2C(C(=O)O)=C(COC(C)=O)CS[C@H]12)c1csc(N)n1,–,"inconclusive: 14.1 µM [inhibitor, partial curve]"
COC(=O)c1cc(NCc2cccs2)ccc1N1CCOCC1,–,"inconclusive: 15.8 µM [inhibitor, single point]"
O=C(NNC(=S)Nc1ccccc1Cl)c1ccccc1,–,"inconclusive: 3.16 µM [inhibitor, full curve, poor fit]"
CCCCOc1ccc(C2=NNC(=O)CC2)cc1,inactive: 9.91%,–
Cn1c(-c2cccc([N+](=O)[O-])c2)cnc1NCc1ccc(C#N)cc1,–,"inconclusive: 17.7 µM [inhibitor, partial curve]"
Nc1cc2c(cc1O)CCCC2,–,"inconclusive: 15.8 µM [inhibitor, partial curve]"
Cc1cc(C)nc(SCc2ccc(C(=O)N/N=C/c3ccccn3)cc2)n1,–,"inconclusive: 25.1 µM [inhibitor, single point]"

Compound,"activity, negative = inhibition",Potency
CCOC(=O)C(=O)NCc1ccc(/C=C2/N=C(C)C(C(=O)OCC)=C2O)o1,–,"inconclusive: 15.8 µM [inhibitor, partial curve]"
O=C(NNC(=S)NC(=O)c1ccc(F)cc1)c1cccnc1,–,"inconclusive: 3.16 µM [inhibitor, partial curve]"
C=CC1=C(C)C2=Cc3c(C=C)c(C)c4[n]3[Sn+2][n]3c(c(C)c(CCC(=O)O)c3=CC3=NC(=C4)C(C)=C3CCC(=O)O)=CC1=N2,–,"inconclusive: 22.3 µM [inhibitor, partial curve]"
COc1ccc(Nc2oc(-c3ccccc3F)nc2C#N)cc1,inactive: 2.86%,–
O=C(/C=C/c1ccco1)N(c1ccccn1)c1ccccn1,–,"inconclusive: 12.6 µM [inhibitor, partial curve]"
Clc1ccc(CN2CCN(c3ncccn3)CC2)c(Cl)c1,–,"inconclusive: 3.98 µM [inhibitor, full curve]"
CC1(C)Cc2ccccc2-c2[nH]c(=S)[nH]c(=O)c21,–,"inconclusive: 25.1 µM [inhibitor, partial curve]"
O=S(=O)(/N=C(/NC(=S)Nc1ccccc1)c1ccccc1)c1ccc(Cl)cc1,–,active: 17.8 µM
Cn1c(-c2cccc([N+](=O)[O-])c2)cnc1NCc1cccc([N+](=O)[O-])c1,–,"inconclusive: 17.7 µM [inhibitor, single point]"
O=C(c1ccco1)[C@@H]1[C@@H]2C(=O)N(c3ccc(F)cc3)C(=O)[C@@H]2C2c3ccccc3C=CN21 (stereo partly specified),–,"inconclusive: 4.46 µM [inhibitor, full curve]"
O=C(CN1CCOCC1)Nc1nc2ccc([N+](=O)[O-])cc2s1,inactive: -6.86%,–
Cc1ccc(-n2ncc3c(NCc4cccnc4)ncnc32)cc1C,inactive: -0.455%,–
CC(C)(C)S(=O)(=O)c1cnc2c(-c3ccc(Cl)cc3)cnn2c1N,–,"inconclusive: 0.141 µM [inhibitor, full curve]"
O=C(CSc1nc(-c2ccccc2)cc(=O)[nH]1)N1CCOCC1,–,"inconclusive: 28.2 µM [inhibitor, single point]"
CCN(CC)CCn1c(=N)n(CCOc2ccccc2)c2ccccc21,inactive: 0.475%,–
Cc1cc(C)nc(NNC(=O)c2ccccc2O)n1,–,"inconclusive: 15.8 µM [inhibitor, partial curve]"
Nc1[nH]c(=S)[nH]c(=O)c1-c1ccccc1,–,"inconclusive: 17.7 µM [inhibitor, partial curve]"
Cc1ccc(C(=O)Nc2ccc(O)cc2C(=O)O)cc1C,–,"inconclusive: 2.81 µM [inhibitor, full curve]"
Cc1ccc(OCc2cc(C(=O)NCc3cc(F)ccc3C)no2)cn1,inactive: -0.0553%,–
CCN(CC)c1ccc(/C=C2/SC(=O)N(C(C)C)C2=O)o1,–,"inconclusive: 9.98 µM [inhibitor, partial curve]"
CCCCn1c(NC(=O)c2ccccc2)c(C#N)c2nc3ccccc3nc21,–,"inconclusive: 0.63 µM [inhibitor, full curve]"
O=C(NC1C(=O)NNC1c1ccccc1)c1ccc(F)cc1 (stereo unspecified),inactive: -8.08%,–
CC(C)N1CCc2[nH]c(=S)[nH]c(=O)c2C1,–,"inconclusive: 44.6 µM [inhibitor, single point]"
